The other results are listed elsewhere or left out. Cleavage of a single-stranded DNA pool by Rep nickase domains was read by sequencing (1 h at 37 °C, 3 µM enzyme); the outer parts of the 90-letter strands are left off. The score is log2 (uncut reads / reads without enzyme); strong cutting gives strongly negative numbers. There is no active / inactive call. Shares of all reads are compared, so uncut sequences can rise above 0 when many others are cut.
Key:
Assay in all cases: uncleaved DNA left, log2 of reads against the no-enzyme library (log2 ratio); higher = less cleavage (more negative = more Rep cleavage of the k-mer); sequences stand for … in CTCGTCCG…ACCGGAGA
[1] = test system: T1, Rep nickase domain of Muscovy duck circovirus
T1 sequence (Rep 1-111, printed without the tag): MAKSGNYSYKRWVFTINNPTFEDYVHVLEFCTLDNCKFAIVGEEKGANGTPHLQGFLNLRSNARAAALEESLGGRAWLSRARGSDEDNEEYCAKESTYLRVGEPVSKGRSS
Method: (§1)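 A pool of 90-nt single-stranded DNAs with seven random bases just before the constant AC of the nick site (name = the seven bases) was cut by 3 µM recombinant His6-SUMO-tagged Rep nickase domain (300 nM DNA, 50 mM HEPES pH 8.0, 50 mM NaCl, 1 mM MnCl2, 1 h, 37 °C, three replicates). Uncut DNA was amplified and sequenced.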

[2] = test system: T2, Rep nickase domain of banana bunchy top virus
T2 sequence (Rep 1-94, printed without the tag): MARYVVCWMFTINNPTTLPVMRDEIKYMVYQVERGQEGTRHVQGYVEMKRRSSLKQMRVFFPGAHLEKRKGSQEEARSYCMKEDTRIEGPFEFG
Method: as §1

[3] = test system: T3, Rep nickase domain of cabbage leaf curl virus
T3 sequence (Rep 1-116, printed without the tag): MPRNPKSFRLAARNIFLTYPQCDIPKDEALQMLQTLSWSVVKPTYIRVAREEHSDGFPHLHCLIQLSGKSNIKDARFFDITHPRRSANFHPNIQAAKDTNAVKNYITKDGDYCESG
Method: as §1

[4] = test system: T4, Rep nickase domain of chickpea chlorotic dwarf virus
T4 sequence (Rep 1-124, printed without the tag): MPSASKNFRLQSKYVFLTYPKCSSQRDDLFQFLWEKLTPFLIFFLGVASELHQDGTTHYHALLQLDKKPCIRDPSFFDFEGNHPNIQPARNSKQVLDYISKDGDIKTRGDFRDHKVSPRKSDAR
Method: as §1

[5] = test system: T5, Rep nickase domain of faba bean necrotic yellows virus
T5 sequence (Rep 1-98, printed without the tag): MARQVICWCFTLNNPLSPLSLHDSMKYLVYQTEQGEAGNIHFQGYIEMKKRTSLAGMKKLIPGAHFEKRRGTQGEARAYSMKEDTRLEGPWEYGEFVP
Method: as §1

[6] = test system: T6, Rep nickase domain of maize striate mosaic virus
T6 sequence (Rep 1-117, printed without the tag): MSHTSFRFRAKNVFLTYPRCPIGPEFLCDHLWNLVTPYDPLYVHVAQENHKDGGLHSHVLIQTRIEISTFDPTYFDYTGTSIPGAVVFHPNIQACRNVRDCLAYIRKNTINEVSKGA
Method: as §1

[7] = test system: T7, Rep nickase domain of porcine circovirus 2
T7 sequence (Rep 2-116, printed without the tag): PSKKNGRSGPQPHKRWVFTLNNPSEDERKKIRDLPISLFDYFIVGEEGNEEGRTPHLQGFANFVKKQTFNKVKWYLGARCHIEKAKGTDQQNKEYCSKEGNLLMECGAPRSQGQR
Method: as §1

[8] = test system: T8, Rep nickase domain of tomato golden mosaic virus
T8 sequence (Rep 1-124, printed without the tag): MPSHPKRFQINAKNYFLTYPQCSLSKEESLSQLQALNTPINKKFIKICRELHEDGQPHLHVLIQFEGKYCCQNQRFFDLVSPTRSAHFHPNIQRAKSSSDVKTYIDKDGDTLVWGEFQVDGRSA
Method: as §1

[9] = test system: T9, Rep nickase domain of tomato yellow leaf curl virus
T9 sequence (Rep 1-136, printed without the tag): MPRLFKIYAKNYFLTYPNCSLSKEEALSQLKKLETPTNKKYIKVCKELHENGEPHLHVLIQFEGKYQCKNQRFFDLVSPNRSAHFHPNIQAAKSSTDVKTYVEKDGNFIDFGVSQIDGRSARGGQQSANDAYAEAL
Method: as §1

[10] = test system: T10, Rep nickase domain of wheat dwarf virus
T10 sequence (Rep 1-137, printed without the tag): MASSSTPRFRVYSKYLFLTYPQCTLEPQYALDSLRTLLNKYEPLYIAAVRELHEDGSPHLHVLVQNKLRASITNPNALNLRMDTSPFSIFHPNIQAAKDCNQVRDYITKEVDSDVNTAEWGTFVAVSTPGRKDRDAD
Method: as §1

Sequence | uncleaved DNA left (log2) [1] | uncleaved DNA left (log2) [2] | uncleaved DNA left (log2) [3] | uncleaved DNA left (log2) [4] | uncleaved DNA left (log2) [5] | uncleaved DNA left (log2) [6] | uncleaved DNA left (log2) [7] | uncleaved DNA left (log2) [8] | uncleaved DNA left (log2) [9] | uncleaved DNA left (log2) [10]
CAACCAA | -0.296 | -0.0903 | -0.322 | -1.84 | -0.0729 | -0.769 | -0.92 | -0.139 | -0.205 | -0.113
AATAGAA | 0.011 | -0.0127 | 0.0106 | -0.189 | 0.125 | -0.509 | 0.041 | 0.0328 | -0.0184 | -0.00459
TTAAGAG | 0.153 | 0.11 | -0.374 | -0.659 | 0.16 | -1.02 | 0.172 | 0.0552 | 0.203 | 0.0553
GATGTGA | -0.0435 | -0.0492 | -0.116 | 0.0239 | -0.0584 | -0.453 | 0.00294 | 0.00434 | -0.0545 | -0.0572
CGTCTGC | 0.105 | 0.041 | 0.0372 | 0.34 | 0.0553 | 0.639 | 0.0548 | 0.0039 | -0.0881 | -0.0426
AAACAGT | -0.0318 | -0.0661 | -0.57 | -2.17 | -0.177 | -0.94 | -0.127 | -0.0903 | -0.075 | -0.0781
CGTTAAG | 0.00779 | 0.0927 | -0.743 | -0.206 | 0.0521 | -0.932 | 0.162 | -0.0697 | 0.11 | -0.0728
CGCACCC | -0.0114 | 0.123 | 0.14 | 0.196 | -0.0661 | 0.127 | -0.286 | -0.174 | 0.0893 | 0.153
CGACGAT | 0.0296 | 0.022 | 0.0495 | 0.506 | -0.0425 | 1.12 | -0.105 | -0.0254 | -0.0823 | -0.0615
TGAGGCC | 0.0733 | -0.052 | 0.259 | 0.536 | -0.108 | 0.367 | -0.0748 | 0.0853 | 0.0353 | 0.0484
ACATAGC | -0.173 | -0.149 | -0.721 | -0.584 | -0.0331 | -1.24 | 0.0367 | -0.0677 | -0.0856 | -0.215
TGCTGAA | -0.00425 | -0.129 | 0.181 | 0.465 | -0.00761 | 0.725 | 0.0417 | 0.0507 | 0.0726 | -0.104
CGGATCA | -0.0194 | 0.148 | 0.397 | 0.624 | 0.01 | 1.12 | 0.0462 | -0.0242 | 0.132 | 0.165
CTTCCTA | -0.171 | -0.000492 | -0.02 | -1.17 | -0.138 | -0.48 | -0.401 | 0.00409 | 0.0577 | 0.0098
GTGTTAG | 0.178 | 0.155 | -0.114 | 0.097 | -0.0232 | -0.508 | 0.0882 | 0.11 | 0.127 | 0.049
CAGTACT | -3.7 | -3.62 | -2.21 | -3.14 | -3.6 | -0.847 | -3.98 | -1.1 | -0.225 | -0.528
AAAACTT | -0.447 | -0.361 | -3.26 | -2.96 | 0.11 | -1.36 | -3.13 | -1.31 | 0.0931 | -2.45
ATTATTG | 0.0529 | -0.0491 | -0.589 | -0.642 | -0.0271 | -1.43 | 0.12 | 0.00717 | 0.0403 | -0.114
TAGTCGG | 0.0382 | 0.0811 | 0.588 | 1.38 | -0.0186 | 1.84 | -0.124 | 0.168 | -0.189 | 0.0918
TCGGTAT | 0.053 | -0.0476 | 0.207 | 0.656 | -0.093 | 1.35 | 0.0369 | -0.00827 | -0.0463 | -0.00749
GGCACGT | 0.0965 | 0.0599 | 0.667 | 1.57 | 0.0299 | 1.94 | 0.198 | -0.0134 | 0.0786 | 0.121
ATTAAGA | 0.102 | 0.0827 | -0.0118 | -0.151 | 0.0499 | -1.04 | 0.105 | 0.113 | 0.0912 | -0.00571
GTGACGC | -0.178 | 0.0761 | 0.532 | 1.53 | 0.0181 | 1.96 | 0.113 | 0.0932 | 0.0578 | 0.0121
TATAGGT | 0.062 | -0.058 | 0.432 | 0.966 | 0.0329 | 1.62 | -0.0443 | 0.0641 | -0.157 | 0.0422
TTAAATA | 0.0366 | 0.0993 | 0.176 | -1.11 | 0.0563 | -0.0613 | 0.128 | 0.106 | 0.0431 | 0.177
TATAGAA | 0.0807 | -0.0739 | 0.176 | -0.39 | 0.119 | -0.544 | -0.00698 | 0.0996 | 0.0275 | 0.0168
GTTTGAC | 0.0112 | -0.074 | 0.278 | 0.869 | -0.0912 | 1.46 | 0.0379 | -0.0284 | -0.0402 | -0.0323
GCCGAGT | -0.251 | 0.0251 | 0.676 | 1.11 | 0.0448 | 1.36 | 0.0927 | -0.0125 | 0.0258 | 0.0589
CGGTTGT | 0.0544 | -0.00509 | -0.0444 | 0.391 | -0.0397 | 0.846 | -0.187 | -0.0774 | -0.0403 | 0.0554
CATGCCC | -0.0861 | -9.92e-05 | -0.266 | -0.631 | 0.0323 | -0.887 | -0.0431 | -0.11 | -0.026 | -0.0753

Reference: the supplement of paper PMC7826260
